Experimental data from patent US20240043403A1, “HETEROARYL CARBOXAMIDE COMPOUND” (Astellas Pharma Inc., priority 2020, published 2024).
At least one read-out could not be matched to a standard name with certainty.

Test system: IL-2 production in Jurkat E6.1 cells
Experiment: Evaluation of IL-2 production in human T-cell leukemia cell line Jurkat E6.1 (TCR stimulation anti-CD3/anti-CD28)
Format: cell-based
Conditions: concentration at which IL-2 increased to 10 times the solvent control; Jurkat E6.1, anti-CD3/anti-CD28, 24 hours
Protocol: Test Example 2. Evaluation of Il-2 Production in Human T-Cell Leukemia Cell Line Jurkat E6.1
The effect of the test compound on the IL-2 production by T-cell receptor (TCR) stimulation (anti-CD3/anti-CD28) in Jurkat E6.1 cells (ECACC, 88042803) was evaluated.
A 5 μg/mL anti-CD3 antibody (eBioscience, Inc., OKT3 clone) diluted with phosphate buffer saline (PBS) was added to a 96-well plate (Iwaki & Co., Ltd.) at 50 μL/well, and left standing at 4° C. for 12 hours or more to provide an anti-CD3 antibody-coated plate in advance. When the plate was used for experiments, the plate was washed with 200 μL of PBS once, an anti-CD28 antibody (eBioscience, Inc., 28.2 clone) diluted to a concentration of 10 μg/mL with a culture medium (RPMI1640 (Sigma-Aldlich Co. LLC.) containing 10% fetal bovine serum (Hyclone Laboratories, Inc.)) was then added at 10 μL/well, and the plate was used for assay as a culture plate for TCR stimulation.
Subsequently, the test compound was mixed with Jurkat E6.1 cells in such a manner that an intended final concentration was obtained, and the mixture was plated at 90 μL/well so that the number of cells per well was 1×10^5(that is, finally the culture was performed at 1×10^5 cells/100 μL/well). For culture cell conditions, the culture was performed at 37° C. in the presence of 5% CO2 using RPMI1640 medium containing 10% fatal bovine serum.
After 24 hours, the culture supernatant was collected, and IL-2 was quantitatively determined using AlphaLISA human IL2 Immunoassay Research Kit (PerkinElmer, Inc.). The IL-2 measurement was performed under Alpha Screen standard setting conditions (the fluorescence intensity at 570 nm was measured with an excitation wavelength of 680 nm) using EnVision 2104-0010 and EnVision 2104-0020 (PerkinElmer, Inc.). The IL-2 quantitative value of the solvent treatment control was set to 1, and the test compound concentration at which the IL-2 quantitative value of the test compound treatment sample increased to 10 times the IL-2 quantitative value of the control (EC10fold) was calculated by inverse estimation with the aid of Sigmoid-Emax model non-linear regression analysis. […] In the table, Ex represents the number of each Example described below.

Row | SMILES | EC10fold
1 | NC[C@]1(F)CCCN(c2c(NC(=O)c3ccn(-c4ccnnc4)n3)ccc(Oc3ccccc3F)c2C(F)(F)F)C1 [Example 126, N-{2-[(3R)-3-(aminomethyl)-3-fluoropiperidin-1-yl]-4-(2-fluorophenoxy)-3-(trifluoromethyl)phenyl}-1-(pyridazin-4-yl)-1H-pyrazole-3-carboxamide monobutanedioate] | 31 nM
2 | CNC[C@H]1CN(c2c(NC(=O)c3ccn(-c4ccnnc4)n3)ccc(Oc3ccccc3F)c2Cl)CCN1C [Example 125] | 56 nM
3 | CNC[C@@H]1CN(c2c(NC(=O)c3ccn(-c4ccnnc4)n3)ccc(Oc3ccccc3F)c2C(F)(F)F)CCN1C [Example 123, N-[4-(2-fluorophenoxy)-2-{(3R)-4-methyl-3-[(methylamino)methyl]piperazin1-yl}-3-(trifluoromethyl)phenyl]-1-(pyridazin-4-yl)-1H-pyrazole-3-carboxamide monobutanedioate] | 26 nM
4 | NC[C@]1(F)CCCN(c2c(NC(=O)c3ccn(-c4ccnnc4)n3)ccc(Oc3ccccc3F)c2C(F)(F)F)C1 [Example 45] | 8.1 nM
5 | CNC[C@@H]1CN(c2c(NC(=O)c3ccn(-c4ccnnc4)n3)ccc(Oc3ccccc3F)c2C(F)(F)F)CCN1C [Example 47] | 72 nM
6 | CNC[C@H]1CN(c2c(NC(=O)c3ccn(-c4ccnnc4)n3)ccc(C3CCCC3)c2C(F)(F)F)CCN1C [Example 124] | 410 nM
7 | CNC[C@H]1CN(c2c(NC(=O)c3ccn(-c4ccnnc4)n3)ccc(Oc3ccccc3F)c2C(F)(F)F)CCN1C [Example 122, N-[4-(2-fluorophenoxy)-2-{(3S)-4-methyl-3-[(methylamino)methyl]piperazin1-yl}-3-(trifluoromethyl)phenyl]-1-(pyridazin-4-yl)-1H-pyrazole-3-carboxamide monobutanedioate] | 110 nM
8 | CNC[C@H]1CN(c2c(NC(=O)c3ccn(-c4ccnnc4)n3)ccc(C3CCCC3)c2C(F)(F)F)CCN1C [Example 48] | 35 nM
9 | CNC[C@H]1CN(c2c(NC(=O)c3ccn(-c4ccnnc4)n3)ccc(Oc3ccccc3F)c2C(F)(F)F)CCN1C [Example 29, N-[4-(2-fluorophenoxy)-2-{(3S)-4-methyl-3-[(methylamino)methyl]piperazin-1-yl}-3-(trifluoromethyl)phenyl]-1-(pyridazin-4-yl)-1H-pyrazole-3-carboxamide] | 40 nM
10 | CNC[C@H]1CN(c2c(NC(=O)c3ccn(-c4ccnnc4)n3)ccc(Oc3ccccc3F)c2Cl)CCN1C [Example 86, N-[3-chloro-4-(2-fluorophenoxy)-2-{(3S)-4-methyl-3-[(methylamino)methyl]piperazin-1-yl}phenyl]-1-(pyridazin-4-yl)-1H-pyrazole-3-carboxamide] | 24 nM
